Results published in the supplement of paper PMC7125110.
± gives the standard error. Variants at the background level are over-represented here.

B1: glmS ribozyme (parent)
chain: AUAAAAGCGCCAGAACUACAGAAAUGUAGUUGACGAGGAGGAGGUUUAUCGAAUUUUCGGCGGAUGCCUCCAAA

Key:
Conditions in all cases: with glucosamine-6-phosphate
[1] = variants of: B1; assay: kcat; higher = faster cleavage; RNA array
Summary of the method: (§1)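 Using a hybridised Cy3 probe at 37 °C, barcoded ribozyme variants transcribed in situ by E. coli RNA polymerase on sequenced MiSeq chips were monitored across tiles imaged over ~14 h. The flow contained glucosamine-6-phosphate from 40 μM to 10 mM in HEPES/KCl/Mg(OAc)2 buffer. Signals were normalised to baseline and to non-cleaving reference variants before per-tile medians were fit to one- or two-exponential decays to yield kobs. Weighted Michaelis–Menten fits across concentrations gave kcat and KM.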

[2] = variants of: B1; assay: self-cleavage kobs at 40 uM GlcN6P; higher = faster cleavage; RNA array
Summary of the method: as §1

[3] = variants of: B1; assay: self-cleavage kobs at 160 uM GlcN6P; higher = faster cleavage; RNA array
Summary of the method: as §1

[4] = variants of: B1; assay: self-cleavage kobs at 2500 uM GlcN6P; higher = faster cleavage; RNA array
Summary of the method: as §1

[5] = variants of: B1; assay: self-cleavage kobs at 10000 uM GlcN6P; higher = faster cleavage; RNA array
Summary of the method: as §1

[6] = variants of: B1; assay: self-cleavage kobs at 640 uM GlcN6P; higher = faster cleavage; RNA array
Summary of the method: as §1

| Variant | kcat [1] | self-cleavage kobs at 40 uM GlcN6P [2] | self-cleavage kobs at 160 uM GlcN6P [3] | self-cleavage kobs at 2500 uM GlcN6P [4] | self-cleavage kobs at 10000 uM GlcN6P [5] | self-cleavage kobs at 640 uM GlcN6P [6] |
| --- | --- | --- | --- | --- | --- | --- |
| U47C G60A | < 1e-05 s⁻¹ | < 1e-05 s⁻¹ | < 1e-05 s⁻¹ | < 1e-05 s⁻¹ | < 1e-05 s⁻¹ |  |
| A6G C10A C58G |  | < 1e-05 s⁻¹ |  |  |  |  |
| A12U G35A | < 1e-05 s⁻¹ | < 1e-05 s⁻¹ | < 1e-05 s⁻¹ |  | < 1e-05 s⁻¹ |  |
| C61G | < 1e-05 s⁻¹ | < 1e-05 s⁻¹ | < 1e-05 s⁻¹ |  | < 1e-05 s⁻¹ |  |
| G62U U65A | < 1e-05 s⁻¹ |  |  | < 1e-05 s⁻¹ | < 1e-05 s⁻¹ |  |
| G37U U46A | < 1e-05 s⁻¹ | < 1e-05 s⁻¹ | < 1e-05 s⁻¹ |  |  |  |
| G7A C8U U49G G62C | < 1e-05 s⁻¹ | < 1e-05 s⁻¹ |  | < 1e-05 s⁻¹ |  |  |
| A6G G7U A12C A42C |  | < 1e-05 s⁻¹ |  |  |  |  |
| A6U A42C C70U |  | < 1e-05 s⁻¹ |  | < 1e-05 s⁻¹ |  |  |
| C10G G59C U69G C70A | < 1e-05 s⁻¹ |  |  | < 1e-05 s⁻¹ | < 1e-05 s⁻¹ |  |
| A36U C61G | < 1e-05 s⁻¹ |  |  |  | < 1e-05 s⁻¹ |  |
| C10U A12U U31C U54G C67A | < 1e-05 s⁻¹ |  |  |  |  |  |
| G51U C58A | < 1e-05 s⁻¹ |  |  |  |  | < 1e-05 s⁻¹ |
| G32C U47C G62C C71U | < 1e-05 s⁻¹ | < 1e-05 s⁻¹ |  |  |  |  |
| G29C U55C U69G | < 1e-05 s⁻¹ |  |  |  |  |  |
| A6C G29C A36U C61U |  | < 1e-05 s⁻¹ |  | < 1e-05 s⁻¹ | < 1e-05 s⁻¹ |  |
| C11G U54G | < 1e-05 s⁻¹ |  |  |  |  |  |
| A6C U65C |  | < 1e-05 s⁻¹ |  |  |  |  |
| A6C U65G |  | < 1e-05 s⁻¹ |  |  |  |  |
| A6G C50A C70U |  | < 1e-05 s⁻¹ |  |  |  |  |
| U65C C67U C70A | < 1e-05 s⁻¹ | < 1e-05 s⁻¹ |  |  |  |  |
| A14G G60U | < 1e-05 s⁻¹ | < 1e-05 s⁻¹ | < 1e-05 s⁻¹ |  |  |  |
| A6U A14C A39G |  | < 1e-05 s⁻¹ |  |  |  |  |
| A36U A52C | < 1e-05 s⁻¹ | < 1e-05 s⁻¹ | < 1e-05 s⁻¹ |  |  |  |
| A6C C10A G40A G66U |  | < 1e-05 s⁻¹ |  |  | < 1e-05 s⁻¹ |  |

| Variant | kcat [1] | self-cleavage kobs at 40 uM GlcN6P [2] | self-cleavage kobs at 160 uM GlcN6P [3] | self-cleavage kobs at 2500 uM GlcN6P [4] | self-cleavage kobs at 10000 uM GlcN6P [5] | self-cleavage kobs at 640 uM GlcN6P [6] |
| --- | --- | --- | --- | --- | --- | --- |
| A36U | < 1e-05 s⁻¹ |  |  |  | < 1e-05 s⁻¹ |  |
| C10U C16A | < 1e-05 s⁻¹ | < 1e-05 s⁻¹ |  |  |  |  |
| A6C A42G C68G |  | < 1e-05 s⁻¹ |  | < 1e-05 s⁻¹ |  | < 1e-05 s⁻¹ |
| G38U A39G | < 1e-05 s⁻¹ | < 1e-05 s⁻¹ | < 1e-05 s⁻¹ |  |  | < 1e-05 s⁻¹ |
| G62C C67U | < 1e-05 s⁻¹ | < 1e-05 s⁻¹ |  |  |  |  |
| A42U G43U | < 1e-05 s⁻¹ |  |  |  |  |  |
| A6C G13U |  | < 1e-05 s⁻¹ | < 1e-05 s⁻¹ |  |  | < 1e-05 s⁻¹ |
| A33G G62U | < 1e-05 s⁻¹ |  |  | < 1e-05 s⁻¹ | < 1e-05 s⁻¹ |  |
| A6G G7C U45G C67U |  | < 1e-05 s⁻¹ |  | < 1e-05 s⁻¹ |  |  |
| G63A C70U | < 1e-05 s⁻¹ |  |  |  |  |  |
| A36C A48U | < 1e-05 s⁻¹ | < 1e-05 s⁻¹ |  | < 1e-05 s⁻¹ | < 1e-05 s⁻¹ |  |
| G29A G44C | < 1e-05 s⁻¹ | < 1e-05 s⁻¹ |  |  |  |  |
| G38C A64C | < 1e-05 s⁻¹ |  | < 1e-05 s⁻¹ |  | < 1e-05 s⁻¹ | < 1e-05 s⁻¹ |
| A6C C61U |  | < 1e-05 s⁻¹ | < 1e-05 s⁻¹ |  | < 1e-05 s⁻¹ |  |
| A6G A15C C16U |  | < 1e-05 s⁻¹ |  |  | 4.37e-05 ± 1.5e-05 s⁻¹ |  |
| A6U A12C A14G G41U G43A G63C |  | < 1e-05 s⁻¹ |  | < 1e-05 s⁻¹ |  |  |
| A6C C16A A42C C68G |  | < 1e-05 s⁻¹ |  |  | < 1e-05 s⁻¹ |  |
| C34U C61A | < 1e-05 s⁻¹ |  | < 1e-05 s⁻¹ |  |  |  |
| C34U C61U | < 1e-05 s⁻¹ | < 1e-05 s⁻¹ | < 1e-05 s⁻¹ | < 1e-05 s⁻¹ | < 1e-05 s⁻¹ | < 1e-05 s⁻¹ |
| G29C G38U | < 1e-05 s⁻¹ |  | < 1e-05 s⁻¹ |  |  |  |
| G38A G62A | < 1e-05 s⁻¹ | < 1e-05 s⁻¹ |  |  | < 1e-05 s⁻¹ | < 1e-05 s⁻¹ |
| C34G C61A | < 1e-05 s⁻¹ |  | < 1e-05 s⁻¹ | < 1e-05 s⁻¹ | < 1e-05 s⁻¹ |  |
| G59C C71A | < 1e-05 s⁻¹ |  |  |  |  | < 1e-05 s⁻¹ |
| C11A A12G G13A A15C C16U U17A A18C C19A A20G G21A | < 1e-05 s⁻¹ | < 1e-05 s⁻¹ |  |  |  |  |
| A15U C61U | < 1e-05 s⁻¹ | < 1e-05 s⁻¹ |  |  | < 1e-05 s⁻¹ | < 1e-05 s⁻¹ |
